# The supplement of paper PMC10126150
# Sequences with one replicate were seen in a single cluster, so their values are uncertain.
# System: ATP
# Assay: switch fluorescence ratio, 500 uM ATP over buffer (Cy3 cluster intensity, sum of 5 cycles each) (fold (ratio)); higher = stronger signal-on switching upon ATP binding; sequences stand for … in TCGTCGGCAGCGTCAGATGTGTATAAGAGACAGTTTTTTTTTTTTTTTTTTTTTTTTT…TC
# Settings: aptamer strand: ATP DNA aptamer (quencher-CACCTGGGGGAGTATTGCGGAGGAAGG + anchor), 100 nM annealed; ATP concentration: 500 uM; one replicate
# Procedure, shortened: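 The fluorescence ratio divides summed target-cycle Cy3 intensity by summed buffer-cycle Cy3 intensity for each cluster and is averaged per switch-domain sequence. Cy3-labelled switching-strand clusters on a modified Illumina MiSeq flow-cell were annealed to 100 nM quencher-labelled ATP aptamer, then imaged in selection buffer and again after 15 min with 500 uM ATP at 22 °C. Five such cycles were run, with NaOH stripping and re-annealing between them, and clusters outside 100-1000 RFU were excluded.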
# 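Note: ATP exposure 15 min at 22 °C before imaging.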
row,Sequence,switch fluorescence ratio
1,GTTTACGGCT,1.08
2,GTTTAGACAG,0.994
3,GTTTATATTT,1.03
4,GTTTATCCAG,0.996
5,GTTTATGGCA,0.974
6,GTTTATTCT,0.943
7,GTTTCATTTA,1.01
8,GTTTCCAAGA,1.11
9,GTTTCCCACC,1.06
10,GTTTCCTCCG,5.33
11,GTTTCGGTGC,1.01
12,GTTTCTATTG,0.979
13,GTTTCTGTTT,0.966
14,GTTTCTTATG,0.904
15,GTTTGATCAT,0.934
16,GTTTGATTGA,1.02
17,GTTTGCAGTC,1.03
18,GTTTGCATTC,1.05
19,GTTTGCGAGG,1.06
20,GTTTGCTCAA,0.981
21,GTTTGGGGAC,1.01
22,GTTTGTATTG,1.01
23,GTTTGTGTCG,0.978
24,GTTTGTTCCG,1.02
25,GTTTTACAAC,1.04

row,Sequence,switch fluorescence ratio
1,GTTTTCAATA,0.945
2,GTTTTCC,1.03
3,GTTTTCCTGA,0.999
4,GTTTTCTCTG,1.01
5,GTTTTGCTCA,0.934
6,GTTTTGGTCA,0.999
7,GTTTTGTGAG,1.02
8,GTTTTGTGTG,0.96
9,GTTTTGTTCG,0.979
10,GTTTTTCCC,0.954
11,GTTTTTCCGA,1.05
12,GTTTTTCGTT,1.14
13,TAAAAACTTG,1.03
14,TAAAACCAAA,0.994
15,TAAAAGCGGC,1.07
16,TAAAAGGCCA,1.01
17,TAAAAGTCAA,0.993
18,TAAAAGTGGA,1.09
19,TAAAATCGTG,1.01
20,TAAAATTTCT,1.01
21,TAAACAGTTT,0.973
22,TAAACCCCGC,1.26
23,TAAACCCTGT,1.03
24,TAAACCGTCG,1.26
25,TAAACCGTTC,1.1

row,Sequence,switch fluorescence ratio
1,TAAACGGGCT,0.999
2,TAAACGTCAG,1.03
3,TAAACTGGTG,1.15
4,TAAAGCAGAT,1.04
5,TAAAGCCTAT,1.02
6,TAAAGCTCTT,0.95
7,TAAAGCTTA,1
8,TAAAGCTTTA,0.987
9,TAAAGGAGAG,1.02
10,TAAAGGCCTT,1.01
11,TAAAGGGATA,1.02
12,TAAAGTGTCC,1.04
13,TAAATAGTAA,1
14,TAAATATTCG,0.911
15,TAAATCAGAT,1
16,TAAATCGAA,1.01
17,TAAATCGGG,1.01
18,TAAATGCGAC,1.09
19,TAAATGTACG,1.02
20,TAAATGTTCA,0.987
21,TAAATTCGGT,0.979
22,TAAATTGCTG,0.987
23,TAAATTTCAG,0.938
24,TAACAAAAAC,1.17
25,TAACAAAATT,0.985

row,Sequence,switch fluorescence ratio
1,TAACAAATAA,1.02
2,TAACAAGGGC,0.981
3,TAACAAGTTA,0.944
4,TAACAGTAGT,1.09
5,TAACAGTCGG,1.05
6,TAACAGTTCC,1.28
7,TAACCCATGC,1.21
8,TAACCGGTGG,0.966
9,TAACCGTAAC,1.64
10,TAACGAATTT,1.01
11,TAACGAGGTT,1.02
12,TAACGCTGTA,1.01
13,TAACTAAGTG,0.938
14,TAACTATACG,1.24
15,TAACTATCTC,1.01
16,TAACTCATTA,1.03
17,TAACTGGGCC,1.07
18,TAACTGGGGG,1.04
19,TAACTGTGTC,1.03
20,TAACTGTTAG,0.999
21,TAACTTGGAA,1
22,TAACTTTTAT,1.04
23,TAAGAACCTA,1
24,TAAGAAGCCC,0.903
25,TAAGAATCCC,1.03

row,Sequence,switch fluorescence ratio
1,TAAGACATTA,0.991
2,TAAGACCAGA,0.99
3,TAAGACTTTC,1.03
4,TAAGAGACAG,1.01
5,TAAGAGATAA,1.01
6,TAAGAGCAGA,1.06
7,TAAGAGGTTG,0.933
8,TAAGAGTCAC,1
9,TAAGATAATT,1.04
10,TAAGATATGA,1.02
11,TAAGATTCCT,1.07
12,TAAGATTGAA,1
13,TAAGATTGGG,0.979
14,TAAGATTTGA,0.963
15,TAAGCAGTAG,1.42
16,TAAGCGACGC,1.07
17,TAAGCGCCGT,1.08
18,TAAGCGGATT,1
19,TAAGCTAAT,1.1
20,TAAGCTGGCC,1.1
21,TAAGCTTCGT,0.999
22,TAAGGAAAAA,2.43
23,TAAGGAATA,1.06
24,TAAGGGACCG,1.16
25,TAAGGGCGCT,0.983

row,Sequence,switch fluorescence ratio
1,TAAGGGGTG,0.989
2,TAAGGGGTTG,1.01
3,TAAGGGTGAG,1.03
4,TAAGGTGAC,1.12
5,TAAGGTGTAC,1.07
6,TAAGGTTAGC,1
7,TAAGTACGCG,1.08
8,TAAGTAGCA,1.03
9,TAAGTAGGCT,0.981
10,TAAGTAGGTT,0.986
11,TAAGTATAGC,0.956
12,TAAGTGACTG,1.06
13,TAAGTGTCCA,0.99
14,TAAGTTATG,1.01
15,TAAGTTCCCG,0.99
16,TAATAAAAAG,0.987
17,TAATAACGAC,1.07
18,TAATAAGAAG,0.995
19,TAATAATGTT,0.932
20,TAATACAATC,1.03
21,TAATACACGC,1.11
22,TAATACGGGG,0.986
23,TAATAGTTTC,0.998
24,TAATATAGCG,0.983
25,TAATATTGTG,1.01

row,Sequence,switch fluorescence ratio
1,TAATCCACCA,1.06
2,TAATCCCCTC,1.06
3,TAATCGAAGA,1.06
4,TAATCGGTTT,0.977
5,TAATCTTCCG,1.52
6,TAATGAGATA,1.04
7,TAATGAGGGT,1.01
8,TAATGATCGA,0.963
9,TAATGCCAAT,1
10,TAATGCCATC,0.969
11,TAATGGAGA,0.998
12,TAATGGAGCA,0.973
13,TAATGTCAAC,0.986
14,TAATGTGAG,1.01
15,TAATTCATCA,1.02
16,TAATTCCAA,0.984
17,TAATTCCGCA,1.3
18,TAATTCGTTT,1.04
19,TAATTGCTAC,1.03
20,TAATTGGCAG,0.989
21,TAATTGGCT,1.03
22,TAATTGTCC,1.01
23,TAATTGTGCA,1.02
24,TAATTTGCAT,0.992
25,TACAAAAAGA,1.03

row,Sequence,switch fluorescence ratio
1,TACAAAACGG,1.03
2,TACAAAATAG,2.82
3,TACAACCGGC,1.11
4,TACAACTGCA,1.08
5,TACAAGAGTA,1.03
6,TACAATGCCA,0.975
7,TACAATTGTG,0.975
8,TACACAGGCG,1.09
9,TACACCTTGT,1
10,TACACGAACG,1.34
11,TACACGACAT,1.23
12,TACACTGCAG,1.02
13,TACACTTAGA,1.06
14,TACAGAGGCG,1.03
15,TACAGGAAGG,0.979
16,TACAGGACGC,1.19
17,TACAGGACGG,1.12
18,TACAGGTGGT,1.44
19,TACATACGGG,1.46
20,TACATAGCGT,1.05
21,TACATAGTCC,0.99
22,TACATCCAGA,0.961
23,TACATCCGAA,0.999
24,TACATTCGGT,1
25,TACATTCTGT,1
